Laboratory results published in PubChem BioAssay AID624296 (National Center for Advancing Translational Sciences (NCATS), 2012).
About 9,900 (2.8%) of roughly 350,000 compounds were called active. Inconclusive means that the source gave no clear call. Such entries were picked first, then a sample of the others. Calls come from the whole dose curve; as a rule, active = well fitted activation curve with a large enough effect; inconclusive = small, poorly fitted or top-dose-only effect; inactive = no such curve, though single readings can be large or run the other way. No potency is given beside an inconclusive call; the fits are too rough.

assay: A quantitative high throughput screen for small molecules that induce DNA re-replication in MCF 10a normal breast cells.; note: nearly all actives have a fitted effect of over 50% in size; for activity, positive = re-replication: % of control where 0% means no effect; settings: MCF 10A DNA re-replication, Hoechst nuclear intensity, 48 h; activity, positive = re-replication: at 46.1 µM (top of the series)
Potency is the fitted concentration of half-maximal effect; tags give direction and shape of the fitted curve.

SMILES | Potency | activity, positive = re-replication
CC(=O)c1cccc(-n2c(CCC(=O)O)ccc2-c2ccccc2)c1 | inconclusive [activator, partial curve, poor fit] | 
O=C(Nc1ccc(Cn2cccn2)cc1)c1ccc(COc2cccc(Br)c2)cc1 | inconclusive [activator, full curve] | 
CCN1C(=O)c2cccc3c(NS(=O)(=O)c4ccc(NC(C)=O)cc4)ccc1c23 | inconclusive [activator, single point] | 
C=CCN1C(=O)C(CC(=O)Nc2ccccc2F)S/C1=N\c1nccs1 (stereo not given) | inconclusive [activator, single point] | 
COC(=O)c1ccc(C(=O)Nc2cc(Cl)ccc2Cl)cc1NC(=O)c1ccc(N(C)C)cc1 |  | inactive: 0.618%
CCOC(=O)C1(C(C)(C)CC)CC(CSc2nc3ccccc3[nH]2)OC1=O (stereo not given) | inconclusive [activator, single point] | 
CSC1=C(C#N)C(c2ccccc2Cl)C2=C(N1)c1ccccc1C2=O (stereo not given) | inconclusive [activator, single point] | 
COc1cc(/C=N/Nc2cc(C)nc(NS(=O)(=O)c3ccc(C)cc3)n2)ccc1O | inconclusive [activator, single point] | 
O=C(CSc1nc2ccccc2s1)NNC(=O)Nc1ccc(Cl)c(Cl)c1 | inconclusive [activator, single point] | 
Cc1ccn(CCC(=O)N2CCCC(CCC(=O)N3CCN(c4ccccn4)CC3)C2)n1 (stereo not given) |  | inactive: -0.0092%
Cc1noc(C)c1NC(=O)Nc1cccc2c1O[C@H](CN(C)C(=O)Nc1ccc3c(c1)OCO3)[C@@H](C)CN([C@H](C)CO)C2=O | inconclusive [activator, single point] | 
Cc1[nH]n(-c2ccccc2)c(=O)c1C(c1cccc([N+](=O)[O-])c1)c1c(C)[nH]n(-c2ccccc2)c1=O | inconclusive [activator, single point] | 
COc1ccc(N2CCN(C3CCCN(S(=O)(=O)c4ccccc4)C3)CC2)cc1 (stereo not given) | inconclusive [activator, single point] | 
O=c1c2ccccc2c(-c2ccc(Br)cc2)nn1Cc1ccccc1 | inconclusive [activator, partial curve, poor fit] | 
COc1ccccc1NC(=O)c1ccc(-c2ccc(Br)cc2)o1 | inconclusive [activator, single point] | 
CCCCNc1c(-c2ccc(OC)c(SC3CCCCC3)c2)nc2cnccn12 | active: 16.4 µM | 
O=C(NNC1=Nc2ccccc2SC1)c1ccc(Cl)cc1 | inconclusive [activator, partial curve, poor fit] | 
N#CCC(=O)N/N=C/c1cn(Cc2ccc(Cl)cc2Cl)c2ccccc12 | active: 11.6 µM | 
C=CCC(=O)N(CC)CC1CCCN(CCc2cccc(F)c2)C1 (stereo not given) |  | inactive: -2.59%
CC1(C)Oc2ccc3ccc(=O)oc3c2/C(=C/Nc2ccc(O)cc2)C1=O | inconclusive [activator, single point] | 
COc1ccc(C(=O)NNC(=O)c2ccc3ccccc3n2)cc1 | inconclusive [activator, partial curve] | 
O=C(CNc1cc(S(=O)(=O)N2CCOCC2)ccc1NCC1CCCO1)Nc1ccccc1F (stereo not given) |  | inactive: 1.8%
CN1CCN(C(=O)COCc2cc(-c3ccc4c(c3)OCO4)on2)CC1 |  | inactive: 0.352%
COC(=O)COc1ccc(/C=N/NC(=O)CN(c2ccccc2OC)S(=O)(=O)c2ccccc2)cc1 | inconclusive [activator, single point] | 

SMILES | Potency | activity, positive = re-replication
CN1CCN(CCCNC(=O)c2ccc3c(=O)n(CCc4ccccc4)c(=O)[nH]c3c2)CC1 |  | inactive: 25.8%
Cn1cc(CN2CCCC(C(=O)c3ccc(-c4ccccc4)cc3)C2)cn1 (stereo not given) |  | inactive: 0.119%
Cc1cc(C)cc(N(CC(=O)Nc2ccc(C(F)(F)F)cc2)S(=O)(=O)c2c(C)[nH]c(=O)[nH]c2=O)c1 | inconclusive [activator, full curve, poor fit] | 
CC(C)CC(=O)Nc1nc2ccc(S(=O)(=O)N3CCOCC3)cc2s1 | inconclusive [activator, single point] | 
Cc1ccc(Nc2cc(-c3ccccc3)nc3ncnn23)cc1 |  | inactive: -5.02%
CCc1cccc(C)c1NC(=O)CCN1C(=O)NC(C)(C)C1=O |  | inactive: 9.25%
COc1ccccc1-c1nnc(SC/C(O)=C(\C#N)c2nc3ccccc3[nH]2)n1C1CCCCC1 | inconclusive [activator, single point] | 
COc1ccc(C(=O)/C=C/N(C)C)cc1OC | inconclusive [activator, single point] | 
COc1ccc(CNC(=O)c2cc(-c3ccccc3OC)on2)cc1 |  | inactive: -3.42%
Cc1cccc2c(=O)n3c(cc12)-c1[nH]c2ccccc2c1CC3 | active: 20.6 µM | 
O=C(O)COc1ccccc1/C=C1\C(=O)Nc2ccc(Br)cc21 |  | inactive: -15.9%
COc1ccc2c(c1)c(CC(=O)NCc1cc([N+](=O)[O-])ccc1O)c(C)n2C(=O)c1ccc(Cl)cc1 | active: 23.1 µM | 
NC(=O)C1(N2CCCCC2)CCN(C(=S)Nc2ccc(F)c(Cl)c2)CC1 | inconclusive [activator, single point] | 
Cc1cc(Nc2cccc(F)c2)nc(NCc2ccccc2)n1 | inconclusive [activator, single point] | 
CC12CCC(C(=O)N(CCCN3CCN(Cc4ccccc4)CC3)C1=O)C2(C)C (stereo not given) | inconclusive [activator, full curve, poor fit] | 
O=C1c2ccccc2C(=O)c2c(NCCCN(CCO)CCO)cccc21 | inconclusive [activator, partial curve, poor fit] | 
Cc1oc(-c2ccccc2F)nc1CN1CCC(C(=O)NCc2ccco2)CC1 |  | inactive: 14.3%
COC(=O)c1ccc(NC(=O)c2cccc(N3C(=O)C4C5C=CC(C6CC56)C4C3=O)c2)cc1 (stereo not given) | active: 16.4 µM | 
C=CCSc1cc(C)nc2c(-c3ccccc3)cnn12 |  | inactive: 10.5%
COc1ccc(CCNC(=O)CSCc2ccc([N+](=O)[O-])cc2)cc1OC |  | inactive: -5.47%
Cc1nc2c(sc3nc(N4CCOCC4)c4c(c32)CC(C)(C)OC4)c(-c2ccccc2)c1C(=O)O | active: 2.91 µM | 
CCOc1ccc2oc(=O)cc(CN3CCN(Cc4ccccc4)CC3)c2c1 |  | inactive: 31.1%
CC(=O)/C(C#N)=C1\NC(=O)C(Cc2ccc(C)c(C)c2)S1 (stereo not given) | inconclusive [activator, full curve] | 
COc1ccc(N2CC(NS(=O)(=O)c3cccs3)CC2=O)cc1 (stereo not given) | inconclusive [activator, partial curve, poor fit] | 

SMILES | Potency | activity, positive = re-replication
O=C1NC(=O)/C(=C/c2ccccn2)S1 | inconclusive [activator, full curve, poor fit] | 
S=C(Nc1cccc(Cl)c1)Nc1ccccc1Oc1ccccc1 | inconclusive [activator, single point] | 
Cc1cccc(OCC(=O)N/N=C/c2cn[nH]c2-c2ccc(Cl)c(Cl)c2)c1 | inconclusive [activator, single point] | 
O=C(CC1C(=O)OCC2CCCCN21)Nc1ccccc1C(F)(F)F (stereo not given) | inconclusive [activator, partial curve, poor fit] | 
O=C(CN1C(=O)C2C3CCC(C3)C2C1=O)Oc1ccc2ccccc2c1 (stereo not given) |  | inactive: -6.97%
CC(=O)c1cccc(OCC(O)CNCC2COc3ccccc3O2)c1 (stereo not given) |  | inactive: -27.1%
O=c1[nH]c(=S)[nH]c2sccc12 | inconclusive [activator, full curve, poor fit] | 
COc1ccc2oc(=O)c(C(=O)Nc3cccc(C)c3)cc2c1 | inconclusive [activator, partial curve] | 
Cc1csc(NC(=O)/C=C/c2ccco2)n1 | inconclusive [activator, partial curve, poor fit] | 
COc1cccc(CNC(C)C(=O)Nc2ccc3c(c2)OCCO3)c1 (stereo not given) |  | inactive: 0.303%
Cc1ccc(CN2CCN(/N=C/C=C/c3ccccc3[N+](=O)[O-])CC2)cc1 | inconclusive [activator, single point] | 
CN(C)c1nc(N/N=C/c2ccccc2O)nc(Nc2ccc(F)cc2)n1 | active: 10.3 µM | 
CN1CCC(OC(=O)Cc2ccc(Cl)cc2)CC1 |  | inactive: -2.35%
Cc1cnc(C(=O)OCc2cc(=O)n3c(C)cccc3n2)cn1 |  | inactive: -2.16%
Cn1c(C(=O)N2CCN(c3ccc(Cl)cc3)CC2)cc2c(=O)[nH]c3ccccc3c21 | inconclusive [activator, partial curve, poor fit] | 
Cc1c(C(C)C)c(=O)n(-c2ccc(S(=O)(=O)NC3CC3)cc2)n1C |  | inactive: -9.35%
CC1CN(c2ccc([N+](=O)[O-])cc2C#N)CC(C)O1 (stereo not given) |  | inactive: 0.362%
C=CC(=O)N=c1sc2ccccc2n1-c1ccccc1 | inconclusive [activator, single point] | 
Cc1cc(C)c(S(=O)(=O)c2ccccc2C)c(N(C)C)n1 |  | inactive: -4.97%
O=C(CCN1CCCCC1)c1cccc(Cl)c1 | inconclusive [activator, single point] | 
CC1=CC(=O)[C@@H](OC(=O)Nc2ccc(C)cc2)[C@@H](c2ccccc2Br)N1C | inconclusive [activator, single point] | 
O=C(O)c1ccccc1C(=O)OCCCCOC(=O)c1ccccc1C(=O)O | inconclusive [activator, partial curve, poor fit] | 
